From publication PMC4336329 (PLoS ONE, 2015)
The whole screen tested about 310,000 compounds, of which about 14,000 (4.5%) showed an effect of 50% or more. Effects have a minus sign here. Some of the results follow.

Target: human ether-à-go-go-related gene (hERG) potassium channel (human, UniProt Q12809)
Assay: primary screen, population patch clamp on CHO cells stably expressing hERG
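Note: peak tail current of the secondary pulse compared with the same well before compound.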

human ether-à-go-go-related gene (hERG) potassium channel, sequence (Q12809 whole entry, looked up): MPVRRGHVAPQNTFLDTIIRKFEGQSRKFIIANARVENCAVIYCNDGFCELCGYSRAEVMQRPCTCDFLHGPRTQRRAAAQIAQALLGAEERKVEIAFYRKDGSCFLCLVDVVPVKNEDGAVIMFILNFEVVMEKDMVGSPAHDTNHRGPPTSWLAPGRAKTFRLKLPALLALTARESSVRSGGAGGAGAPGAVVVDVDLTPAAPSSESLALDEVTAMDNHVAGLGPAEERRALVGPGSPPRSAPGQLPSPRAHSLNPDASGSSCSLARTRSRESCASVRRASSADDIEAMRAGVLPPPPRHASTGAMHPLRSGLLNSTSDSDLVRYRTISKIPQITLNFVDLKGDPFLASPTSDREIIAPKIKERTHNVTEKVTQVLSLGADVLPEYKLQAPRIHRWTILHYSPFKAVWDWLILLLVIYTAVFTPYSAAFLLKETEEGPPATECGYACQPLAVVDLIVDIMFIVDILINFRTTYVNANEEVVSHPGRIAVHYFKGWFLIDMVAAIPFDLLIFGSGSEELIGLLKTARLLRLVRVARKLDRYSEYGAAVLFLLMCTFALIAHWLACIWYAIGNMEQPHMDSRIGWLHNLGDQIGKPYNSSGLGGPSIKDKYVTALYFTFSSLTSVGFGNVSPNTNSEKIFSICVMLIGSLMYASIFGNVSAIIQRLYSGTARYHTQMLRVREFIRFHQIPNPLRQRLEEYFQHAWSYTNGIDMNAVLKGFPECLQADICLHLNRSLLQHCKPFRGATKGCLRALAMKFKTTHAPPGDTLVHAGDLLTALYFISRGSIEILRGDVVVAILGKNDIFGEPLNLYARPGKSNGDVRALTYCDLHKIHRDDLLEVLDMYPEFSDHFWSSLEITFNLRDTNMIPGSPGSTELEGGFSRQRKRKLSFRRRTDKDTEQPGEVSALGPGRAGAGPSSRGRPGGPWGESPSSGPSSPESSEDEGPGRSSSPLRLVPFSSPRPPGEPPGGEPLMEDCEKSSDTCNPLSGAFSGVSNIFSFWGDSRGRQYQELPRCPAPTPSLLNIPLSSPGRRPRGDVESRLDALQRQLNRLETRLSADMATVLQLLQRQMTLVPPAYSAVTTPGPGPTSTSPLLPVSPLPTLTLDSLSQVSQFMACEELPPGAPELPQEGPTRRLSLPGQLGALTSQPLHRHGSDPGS

| Structure (SMILES) | hERG current change (%, negative = inhibition) at 10uM |
| --- | --- |
| O=C1N[C@@H](Cc2cn(S(=O)(=O)c3ccc([N+](=O)[O-])cc3)c3ccccc23)C(=O)N[C@H]1Cc1ccccc1 | 10.5% |
| Cc1c(Cl)ccc2sc(NC(=O)c3ccco3)nc12 | 18.9% |
| CCOC(=O)c1ccc(Nc2nnc(C(C)(C)C)c(=O)[nH]2)cc1 | -21.7% |
| COc1ccc(NC(=O)CSc2nnc(C)n2N)cc1S(=O)(=O)N1CCCCC1 | 2.55% |
| Cc1ccc(Cl)cc1NC(=S)N(CCCN1CCN(C)CC1)Cc1cccs1 | -61.7% |
| COc1cccc(/C=N/NC(=O)Cn2nc(C)c([N+](=O)[O-])c2C)c1O | -13.1% |
| COc1ccc(CCNC(=O)CSc2nnc(CNC(=O)c3c(F)cccc3Cl)o2)cc1OC | -8.07% |
| CC(=O)Nc1ccc(N)cc1 | 11.2% |
| COc1cccc(C2c3c(oc4ccccc4c3=O)C(=O)N2CCCN(C)C)c1OC (stereo not drawn) | 22.8% |
| O=C(Nc1c2c(nn1-c1ccc(F)cc1)CS(=O)C2)c1ccc2c(c1)OCO2 (stereo not drawn) | 16.4% |
| O=C(CSc1nnc(NCc2ccccc2)s1)N1CCOCC1 | 2.09% |
| Cc1cc(=O)[nH]c(Sc2c(-c3ccccc3)c3ccccc3[nH]c2=O)n1 | -4.45% |
| COc1cc2c(C(=O)O)c(C)n(C)c2c2ccccc12 | 31.4% |
| CC(=O)c1cn(-c2ccc(Cl)cc2)c(=O)[nH]c1=O | 8.47% |
| CC(=O)Oc1oc(-c2ccccc2)nc1/C=N/c1ccccn1 | -22.6% |
| COc1ccc(OCCn2cc(/C(N)=N/O)c3ccccc32)cc1 | -27.8% |
| CCOc1ccccc1NC(=O)c1cnccn1 | 4.02% |
| COc1ccc(/C(O)=C2/C(=O)C(=O)N(CC3CCCO3)C2c2ccc(OC)c(OC)c2)cc1 (stereo not drawn) | 1.45% |
| CCCCN1CCc2c(c3ccccc3n2Cc2ccccc2)C1 | -72.9% |
| Cc1ccc(NC2=NCCCS2)c(C)c1C | -11.5% |
| CCCCCc1c(O)nc(SCCN2CCOCC2)[nH]c1=O.Cl | -1.61% |
| CCC(C(=O)NCC1CCCO1)N(Cc1ccc(F)cc1)C(=O)CNS(=O)(=O)c1ccccc1 (stereo not drawn) | -7.65% |

| Structure (SMILES) | hERG current change (%, negative = inhibition) at 10uM |
| --- | --- |
| N#Cc1c(-c2ccccc2)c(-c2ccccc2)nn(CC(=O)NNC(=O)Nc2ccc(Cl)cc2)c1=O | 0.631% |
| Cc1cc2ncn(C(=O)c3ccc4c(c3)OCO4)c2cc1C | 7.4% |
| O=C(COc1ccc2c(-c3ccccc3)cc(=O)oc2c1)Nc1cccnc1 | -21.5% |
| O=C(CC(c1ccccc1)c1ccccc1)NCCOCc1ccccc1 | -12.6% |
| COc1ccc(N(CC(=O)NC2CC3CCC2C3)S(=O)(=O)c2ccc(C)c([N+](=O)[O-])c2)cc1 (stereo not drawn) | 19.7% |
| Cc1ccc(-c2noc(CCC(=O)N(C)c3ccccc3C)n2)cc1 | -0.529% |
| COc1cccc(/C=N\NC(C)=O)c1OC/C=C/c1ccccc1 | 18.4% |
| CCN(CC)C(=O)CSc1nnc(SCc2ccc(Cl)cc2)s1 | -3.44% |
| O=[N+]([O-])c1ccccc1Nc1c2ccccc2nc2ccccc12 | -6.84% |
| COC1=C[C@@H]2C3=C([C@@H]2C1=O)[C@@H](NC(C)=O)CCc1cc(OC)c(OC)c(OC)c13 | 15.9% |
| CCN(CC)c1ccc(C2NCC(c3ccc([N+](=O)[O-])cc3)O2)cc1 (stereo not drawn) | -1.1% |
| O=C(O)c1cccc(CSc2nnc(-c3ccc(Cl)cc3)o2)c1 | 12.5% |
| COc1ccc(/C=C2/SC(=S)N(NS(=O)(=O)c3ccccc3)C2=O)cc1 | -12% |
| O=C(/C=C/c1ccccc1)OCCN=C1NS(=O)(=O)c2ccccc21 | 2.88% |
| CCn1c(C(O)c2ccc(C)cc2)nc2ccccc21 (stereo not drawn) | -8.71% |
| CC(C)n1nnc2ccccc2c1=O | 10% |
| O=C(O)C1CC(=O)N(C2CCCCC2)C1c1ccccc1 (stereo not drawn) | 11.6% |
| O=C(COC(=O)c1ccc(Cl)nc1)NCc1ccc2c(c1)OCO2 | 8.06% |
| Cc1cc(C)cc(SCc2noc(C(=O)NCCN(C)C)c2C(=O)NCCN(C)C)c1 | 6.93% |
| Cc1cccc(-n2cc(-c3ccccc3)c3c(=O)[nH]cnc32)c1 | -0.42% |
| O=C(CCC(=O)c1cccs1)NCc1cccc(Cl)c1 | -13.1% |
| Cc1cc(/C=N/n2cnnc2)c(C)n1-c1ccc2ncccc2c1 | -15.7% |

| Structure (SMILES) | hERG current change (%, negative = inhibition) at 10uM |
| --- | --- |
| O=C(c1cccs1)N1CCC(c2nc(-c3ccc(S(=O)(=O)N4CCOCC4)cc3)no2)CC1 | -68.8% |
| CO/N=C/NC(=O)NOCc1ccc(Cl)cc1Cl | -11.5% |
| CSCCC(NC(=O)COc1ccccc1)C(=O)O (stereo not drawn) | 15.2% |
| COc1ccc(/C=C2\SC(=S)N(CCCC(=O)NC3CCCC3)C2=O)cc1OC | -12.2% |
| Cc1cccc(OCCCSc2nc3ccccc3[nH]2)c1 | -15.3% |
| CCOC(=O)N1CCN(C(=O)COc2ccc(S(=O)(=O)NC3CCCCC3)cc2C)CC1 | -16.9% |
| Cc1ccc(NC(=O)COC(=O)CCC2CCCC2)c(Br)c1 | 38.5% |
| Cc1cccc(N2CCN(Cc3cnc(Cl)s3)CC2C)c1 (stereo not drawn) | -6.21% |
| O=C(N/N=C/c1ccc(OC(=O)c2cccs2)cc1)c1ccccn1 | 7.2% |
| CC(NC(=O)COC(=O)CCNC(=O)c1ccco1)C12CC3CC(CC(C3)C1)C2 (stereo not drawn) | 0.656% |
| Cc1ccc(NCc2nnc(SCC(=O)c3ccccc3)o2)c(C)c1 | 9.24% |
| CC(=NCCc1c(C)[nH]c2ccc(OC(F)(F)F)cc12)C1=C(O)CC(c2ccccc2)CC1=O (stereo not drawn) | 8.92% |
| COc1ccc(C(=O)c2ccccc2)c(OCC(=O)NC2CC2)c1 | 26.4% |
| COc1ccc(N2C(=O)NC(=O)/C(=C\c3ccc([N+](=O)[O-])s3)C2=O)cc1 | 13.3% |
| Cc1ccccc1NC(=O)CSCc1cc(=O)n2ccsc2n1 | 11.6% |
| C=CCNC(=S)Nc1ccc(C)cc1[N+](=O)[O-] | -7.08% |
| COc1cccc(C(=O)N(Cc2ccccc2)Cc2cc3cc4c(cc3[nH]c2=O)OCCO4)c1 | -25.3% |
| COC(=O)[C@@H](NC(=O)NCCC1=CCCCC1)C(C)C | -3.29% |
| CC(C(=O)NC1(C#N)CCCCC1)N(C)CC(=O)Nc1ccc(Cl)c(Cl)c1 (stereo not drawn) | -1.49% |
| COc1cc(/C=N\NC(=O)CC(=O)NCCc2ccccc2)ccc1O | 15.2% |
| COC(=O)C1=C(c2ccc3ccccc3c2)C[C@@H]2CC[C@H]1N2C(=O)NC1CC1 | 11.6% |
| S=c1[nH]cnc2scc(-c3ccc(Cl)cc3)c12 | 18.6% |

| Structure (SMILES) | hERG current change (%, negative = inhibition) at 10uM |
| --- | --- |
| Cc1ccc(NC(=O)c2ccc(OC(=O)COc3ccc(Cl)c(C)c3)cc2)cc1 | 22.8% |
| CCOC(=O)C1(Cc2cccc(OC)c2)CCCN(Cc2cc(OC)c(O)c(OC)c2)C1 (stereo not drawn) | -33.7% |
| CCc1cccc(C)c1NC(=O)CNCc1ccccc1.O=C(O)C(=O)O | 8.8% |
| Cn1nnnc1SCC(=O)Nc1ccccc1N1CCCCC1 | -15.2% |
| CCOC(=O)c1c(CS(=O)(=O)c2ccccc2)n(C)c2cc(Br)c(O)cc12 | 5.4% |
| C=CCOC(=O)c1[nH]c2c(c1C)C(=O)CC(c1cc(OC)c(OC)c(OC)c1)C2 (stereo not drawn) | -46.8% |
| COc1cc(/C=N/NC(=O)c2cc(-c3cccc(Br)c3)nc3ccccc23)cc(OC)c1O | 10.8% |
| COc1ccc(NC(=O)c2cccs2)cc1NC(=O)c1ccco1 | -10.8% |
| O=C(NC(Cc1ccccc1)c1ccc2c(c1)OCCCO2)c1ccccc1F (stereo not drawn) | -11.9% |
| Cc1cc(F)ccc1NC(=O)C1CCN(C(=O)Nc2ccccc2)CC1 | 7.17% |
| CCOc1ccc(/C=N/NC(=O)c2c(C)n(C)c3ccc(OC)cc23)cc1 | -5.78% |
| Clc1cc2nc(-c3cccnc3Cl)[nH]c2cc1Cl | 24% |
| COC(=O)c1ccc(CSc2ncnc3c2oc2ccccc23)o1 | 0.358% |
| COc1cccc2c(=O)cc(C)n(CC(=O)Nc3cccc(C)c3)c12 | -59.4% |
| COC(=O)C1NN=C(C(=O)c2ccc(Br)cc2)C1c1cccc(Br)c1 (stereo not drawn) | 2.42% |
| Cc1ccc(Oc2ccc(NC(=O)c3ccco3)cc2)cc1 | -17.6% |
| O=Cc1c(-c2ccccc2)nc2ccccn12 | -1.34% |
| COc1c(/C=N/NC(=O)[C@H]2C[C@@H]2c2ccccc2)c(CCN(C)C(C)=O)cc2c1OCO2 | -8.15% |
| COc1ccccc1/C=N/NC(=O)CC(=O)Nc1ccc(Cl)c(Cl)c1 | 7.42% |
| CCC(=O)N1CCc2cc(S(=O)(=O)N3CCN(C(=O)c4ccco4)CC3)ccc21 | -21.8% |
| CCOC(=O)c1ccc(N=c2sc(C(=O)OC)cc(=O)n2-c2ccc(C(=O)OCC)cc2)cc1 | 7.22% |
